# Among all 350,000 compounds or so, about 31,000 (8.9%) were called active. The inconclusive results got no clear call from the source; some entries with a clear call stand among them for comparison. Calls come from the whole dose curve; as a rule, active = well fitted inhibition curve with a large enough effect; inconclusive = small, poorly fitted or top-dose-only effect; inactive = no such curve, though single readings can be large or run the other way. Potencies of inconclusive entries are doubtful fits and often do not repeat. A structure can be active in one record and inactive in another.
# Biological target: Histone-lysine N-methyltransferase EHMT2 (Homo sapiens) (UniProt Q96KQ7)
# Assay: qHTS Assay for Inhibitors of Histone Lysine Methyltransferase G9a; note: nearly all actives have a fitted effect of over 75% in size
# Settings: G9a H3K9 monomethylation, AlphaScreen, 2 h; activity, negative = inhibition: at 59 µM (top of the series) unless noted
# In short: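 Methyltransferase reactions run at room temperature for 2 h (20 nM enzyme, 500 nM biotin-H3K9 peptide, 20 uM SAM) after a 15 min compound preincubation; product detected by AlphaScreen beads and anti-H3K9me1 antibody.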
# % is set by controls: 0 for no effect and ±100 for the full control effect; potency is the fitted concentration of half-maximal effect; tags give direction and shape of the fitted curve.
# Chain of UniProt Q96KQ7 (Q96KQ7 whole entry, looked up): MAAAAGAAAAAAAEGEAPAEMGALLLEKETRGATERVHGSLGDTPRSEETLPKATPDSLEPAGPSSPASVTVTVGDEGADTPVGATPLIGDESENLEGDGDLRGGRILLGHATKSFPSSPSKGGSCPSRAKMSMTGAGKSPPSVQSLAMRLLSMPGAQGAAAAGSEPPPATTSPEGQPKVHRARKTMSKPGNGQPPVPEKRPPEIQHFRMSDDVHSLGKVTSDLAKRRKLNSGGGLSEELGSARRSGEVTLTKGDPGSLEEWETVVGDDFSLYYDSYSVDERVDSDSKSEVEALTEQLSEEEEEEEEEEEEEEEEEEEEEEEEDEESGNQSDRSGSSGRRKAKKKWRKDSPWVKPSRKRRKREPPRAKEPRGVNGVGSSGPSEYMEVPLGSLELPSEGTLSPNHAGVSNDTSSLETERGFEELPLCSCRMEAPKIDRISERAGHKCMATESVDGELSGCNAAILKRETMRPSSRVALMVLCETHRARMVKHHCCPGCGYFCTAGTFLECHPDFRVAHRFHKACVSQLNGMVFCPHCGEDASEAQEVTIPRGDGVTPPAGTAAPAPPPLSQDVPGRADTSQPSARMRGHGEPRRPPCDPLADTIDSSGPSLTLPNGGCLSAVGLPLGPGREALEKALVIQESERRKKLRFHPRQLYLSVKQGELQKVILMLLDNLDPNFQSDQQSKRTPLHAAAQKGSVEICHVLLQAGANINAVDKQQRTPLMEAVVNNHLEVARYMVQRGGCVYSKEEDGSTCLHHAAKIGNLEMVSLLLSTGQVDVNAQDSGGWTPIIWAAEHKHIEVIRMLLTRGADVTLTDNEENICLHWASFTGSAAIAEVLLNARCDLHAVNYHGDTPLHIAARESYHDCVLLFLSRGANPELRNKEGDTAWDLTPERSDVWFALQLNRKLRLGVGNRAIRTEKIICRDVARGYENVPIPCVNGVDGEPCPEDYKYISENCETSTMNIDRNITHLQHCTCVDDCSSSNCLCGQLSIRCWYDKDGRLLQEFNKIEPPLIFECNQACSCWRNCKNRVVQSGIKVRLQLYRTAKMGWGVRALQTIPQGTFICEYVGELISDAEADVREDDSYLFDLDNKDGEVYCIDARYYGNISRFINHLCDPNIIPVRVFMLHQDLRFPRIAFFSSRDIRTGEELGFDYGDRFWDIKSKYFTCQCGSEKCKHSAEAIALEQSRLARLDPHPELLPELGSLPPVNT
Structure (SMILES),Potency,"activity, negative = inhibition"
CCOC(=O)c1cc(-c2ccccc2)n(-c2cccc(C(=O)Nc3ccc(OC)cc3)c2)c1C,"inconclusive: 39.8 µM [inhibitor, partial curve, poor fit]",–
Cc1cccc(NC(=O)CSc2ncnc3nc[nH]c23)c1C,active: 44.7 µM,–
C/C(=N\O)C(=O)NCCCNCCCN(C)C,"inconclusive: 39.8 µM [inhibitor, single point]",–
CCCCSCc1[nH]c(=O)[nH]c1C(=O)CCCCC(=O)OCC,"inconclusive: 25.1 µM [inhibitor, single point]",–
CCCc1nc2sc3c(c2c(=O)n1NC(=O)c1ccco1)CC(C)(C)OC3,–,inactive: 20.3% [at 102 µM]
COc1ccc(N2CCN(C(=O)c3cn(CC(C)C)c(=O)c4c3c3ccccc3n4C)CC2)cc1,"inconclusive: 8.91 µM [inhibitor, partial curve, poor fit]",–
COc1ccc(-n2c(N)c(C(=O)NCc3ccco3)c3nc4ccccc4nc32)cc1OC,"inconclusive: 89.1 µM [inhibitor, single point]",–
CCOC(=O)c1sc2ccc(S(=O)(=O)N3CCCCC3)cc2c1N,"inconclusive: 89.1 µM [inhibitor, partial curve, poor fit]",–
COc1ccc(OCC(=O)OCc2cc(=O)n3nc(C4CCCCC4)sc3n2)cc1,–,inactive: -2.08%
O=C(c1ccc(Cn2cnnn2)cc1)N1CCCC(Nc2ccc(F)c(F)c2)C1 (stereo not given),–,inactive: -1.57% [at 102 µM]
Cc1cc(C)cc(N(CCC#N)C(=O)CSc2n[nH]c(N)n2)c1,"inconclusive: 39.8 µM [inhibitor, partial curve, poor fit]",–
Cc1onc(-c2ccccc2Cl)c1C(=O)Oc1cc(F)cc(F)c1,–,inactive: 45.5%
Cn1cccc1C(=O)C(=O)Nc1cccc(Cl)c1Cl,–,inactive: -0.492% [at 102 µM]
CCOc1ccccc1-c1nnc(SCC(=O)Nc2ccccc2)o1,"inconclusive: 22.4 µM [inhibitor, partial curve, poor fit]",–
Cc1cc(NS(=O)(=O)c2ccc(NC(=O)c3cc4c(=O)n5ccccc5nc4s3)cc2)nc(C)n1,"inconclusive: 14.1 µM [inhibitor, partial curve, poor fit]",–
COc1cccc(/C=N/NC(=O)c2cc(-c3cccn3C)n[nH]2)c1O,"inconclusive: 20 µM [inhibitor, single point]",–
COc1ccccc1C(=O)NCC(=O)OC(C)C(=O)N1CCOCC1 (stereo not given),–,inconclusive: -75.2% [inhibitor] [at 2.33 µM]
CN(C)c1ccc(C=NCC2(O)CCOC(C)(C)C2)cc1 (stereo not given),–,inactive: 43.8% [at 12.7 µM]
CC1(C)CC(=O)C(C(c2cccc([N+](=O)[O-])c2)C2C(=O)CC(C)(C)CC2=O)C(=O)C1,–,inactive: 0.687%
Cc1nnc(NC(=O)CSc2ccccc2N)s1,–,inactive: 5.7% [at 102 µM]
O=C(c1ccc2c(c1)N(Cc1ccc(F)cc1)C(=O)c1ccccc1S2=O)N1CCC(Cc2ccccc2)CC1 (stereo not given),"inconclusive: 28.2 µM [inhibitor, single point]",–
Cc1ccc(C(=O)C[n+]2ccccc2)cc1,active: 14.1 µM,–
O=[N+]([O-])c1ccc(N/N=C\c2cccn2-c2ccccc2)nc1,"inconclusive: 39.8 µM [inhibitor, single point]",–

Structure (SMILES),Potency,"activity, negative = inhibition"
OCc1c[nH]c2ccccc12,active: 12.6 µM,–
CCC(C)N=CC1=C(O)C(C(=O)OC)C(C)(C)CC1=O (stereo not given),"inconclusive: 11.2 µM [inhibitor, partial curve, poor fit]",–
Cc1ccc(S(=O)(=O)Nc2ccc(C(=O)N3CCN(c4ccccc4O)CC3)cc2)cc1[N+](=O)[O-],–,inactive: 36.5% [at 0.501 µM]
CCOc1ccc(OCc2ccc(C(=O)O)o2)cc1,"inconclusive: 22.4 µM [inhibitor, single point]",–
Cc1nc(N2CCN(Cc3ccccc3)CC2)nc2c1C(=O)CC(c1ccco1)C2 (stereo not given),"inconclusive: 1.78 µM [inhibitor, partial curve, poor fit]",–
COc1ccc(-n2cc(-c3ccccc3)c3c(NN4CCOCC4)ncnc32)cc1,active: 50.1 µM,–
O=C(Cn1ncc2ccc(Cl)cc21)NCc1ccc(F)cc1,–,inactive: -33.6%
COc1ccc(OC)c(NC(=O)/C=C/c2ccccc2[N+](=O)[O-])c1,"inconclusive: 25.1 µM [inhibitor, single point]",–
O=c1ccnc(NCCc2ccccc2)[nH]1,"inconclusive: 1 µM [inhibitor, single point]",–
Cc1cc(C)nc(NS(=O)(=O)c2ccc(N/C=C\C(=O)c3cccs3)cc2)n1,active: 50.1 µM,–
O=C(Nc1cccc(S(=O)(=O)NC2=NCCCCC2)c1)c1cc(-c2ccco2)nc2ccccc12,"inconclusive: 14.1 µM [inhibitor, partial curve, poor fit]",–
COc1ccc(C2CCCN2C(=S)Nc2ccccc2C)cc1OC (stereo not given),"inconclusive: 56.2 µM [inhibitor, partial curve, poor fit]",–
O=c1ccc2[n+]([O-])c3ccc(O)cc3oc-2c1,active: 10 µM,–
COCc1cc(C)nc2sc(C(=O)N3CCN(c4ccccc4)CC3)c(N)c12,–,inconclusive: -58.3% [inhibitor] [at 102 µM]
CCOC(=O)CON1C(=O)C(=O)N(OCC(=O)OCC)[C@H]2CCCC[C@H]21,"inconclusive: 89.1 µM [inhibitor, single point]",–
COc1cccc(OCC(=O)Nc2ccccc2C(N)=O)c1,–,inactive: 6.62% [at 12.7 µM]
CCCCOP(=O)(c1ccc(N(C)C)cc1)C(O)c1ccncc1 (stereo not given),"inconclusive: 39.8 µM [inhibitor, single point]",–
CC1CC(CCN)(c2ccccc2)C(C)CN1C (stereo not given),"inconclusive: 89.1 µM [inhibitor, single point]",–
CCCCNCCOCCOc1ccc(C)cc1Br,active: 10 µM,–
CC(=O)Nc1ccc(NC(=O)COC(=O)c2ccc(C)s2)cc1,"inconclusive: 79.4 µM [inhibitor, partial curve, poor fit]",–
CCC(=O)N(C)CCc1cc2c(c(OC)c1/C=N/NC(=O)c1ccc(Br)cc1)OCO2,–,inactive: -7.6%
CN1CCN(C(=O)Nc2ccccc2CC[N+](=O)[O-])CC1,"inconclusive: 50.1 µM [inhibitor, partial curve, poor fit]",–

# From PubChem BioAssay AID504332 (National Center for Advancing Translational Sciences (NCATS), 2011)
